This is one part of the list.
Tests used:
Assay in all cases: glycan array binding signal (z-score within array); higher = stronger binding
Conditions in all cases: glycan notation: IUPAC condensed, linker removed
[1] = biological target: GalNAc3S(b1-4)[Fuc(a1-3)]GlcNAc
Summary of the method: (§1)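 From the Consortium for Functional Glycomics database, 3228 arrays were curated, keeping only those whose protein sequence was available. Binding is given as a within-array Z-score averaged across arrays sharing a protein sequence and across linkers. Negative Z-scores can be read as non-binding.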

[2] = biological target: GalNAc4S6S(b1-4)GlcNAc
Summary of the method: as §1

[3] = biological target: GalNAc6S(b1-4)GlcNAc
Summary of the method: as §1

[4] = biological target: Glc(a1-4)Glc
Summary of the method: as §1

[5] = biological target: Glc(a1-4)Glc(a1-4)Glc(a1-4)Glc
Summary of the method: as §1

[6] = biological target: Glc(a1-6)Glc(a1-6)Glc
Summary of the method: as §1

[7] = biological target: Glc(a1-6)Glc(a1-6)Glc(a1-6)Glc
Summary of the method: as §1

[8] = biological target: Glc(b1-4)Glc
Summary of the method: as §1

[9] = biological target: Glc(b1-6)Glc
Summary of the method: as §1

[10] = biological target: GlcA(b1-3)Gal
Summary of the method: as §1

[11] = biological target: GlcA(b1-3)GlcNAc
Summary of the method: as §1

[12] = biological target: GlcA(b1-6)Gal
Summary of the method: as §1

[13] = biological target: GlcA3S(b1-3)Gal(b1-4)GlcNAc(b1-2)Man
Summary of the method: as §1

[14] = biological target: GlcA3S(b1-3)Gal(b1-4)GlcNAc(b1-3)Gal(b1-4)Glc
Summary of the method: as §1

[15] = biological target: GlcNAc(a1-3)Gal(b1-4)GlcNAc
Summary of the method: as §1

[16] = biological target: GlcNAc(a1-4)Gal(b1-3)GlcNAc
Summary of the method: as §1

[17] = biological target: GlcNAc(a1-4)Gal(b1-4)GalNAc
Summary of the method: as §1

[18] = biological target: GlcNAc(a1-4)Gal(b1-4)GlcNAc
Summary of the method: as §1

[19] = biological target: GlcNAc(a1-4)Gal(b1-4)GlcNAc(b1-3)Gal(b1-4)Glc
Summary of the method: as §1

[20] = biological target: GlcNAc(a1-4)Gal(b1-4)GlcNAc(b1-3)Gal(b1-4)GlcNAc
Summary of the method: as §1

[21] = biological target: GlcNAc(a1-4)Gal(b1-4)GlcNAc(b1-3)Gal(b1-4)GlcNAc(b1-3)Gal(b1-4)GlcNAc
Summary of the method: as §1

[22] = biological target: GlcNAc(a1-4)Gal(b1-4)GlcNAc(b1-3)Gal(b1-4)[Fuc(a1-3)]GlcNAc(b1-3)Gal(b1-4)[Fuc(a1-3)]GlcNAc
Summary of the method: as §1

[23] = biological target: GlcNAc(a1-6)Gal(b1-4)GlcNAc
Summary of the method: as §1

[24] = biological target: GlcNAc(b1-2)Gal(b1-3)GalNAc
Summary of the method: as §1

[25] = biological target: GlcNAc(b1-2)Man(a1-3)[GlcNAc(b1-2)Man(a1-6)]Man(b1-4)GlcNAc(b1-4)GlcNAc
Summary of the method: as §1

[26] = biological target: GlcNAc(b1-2)Man(a1-3)[GlcNAc(b1-2)Man(a1-6)]Man(b1-4)GlcNAc(b1-4)[Fuc(a1-6)]GlcNAc
Summary of the method: as §1

[27] = biological target: GlcNAc(b1-2)Man(a1-3)[GlcNAc(b1-4)][GlcNAc(b1-2)Man(a1-6)]Man(b1-4)GlcNAc(b1-4)GlcNAc
Summary of the method: as §1

[28] = biological target: GlcNAc(b1-2)Man(a1-3)[GlcNAc(b1-4)][GlcNAc(b1-2)Man(a1-6)]Man(b1-4)GlcNAc(b1-4)[Fuc(a1-6)]GlcNAc
Summary of the method: as §1

[29] = biological target: GlcNAc(b1-2)[GlcNAc(b1-4)]Man(a1-3)[GlcNAc(b1-2)Man(a1-6)]Man(b1-4)GlcNAc(b1-4)GlcNAc
Summary of the method: as §1

[30] = biological target: GlcNAc(b1-2)[GlcNAc(b1-4)]Man(a1-3)[GlcNAc(b1-4)][GlcNAc(b1-2)Man(a1-6)]Man(b1-4)GlcNAc(b1-4)GlcNAc
Summary of the method: as §1

[31] = biological target: GlcNAc(b1-2)[GlcNAc(b1-4)]Man(a1-3)[GlcNAc(b1-4)][GlcNAc(b1-2)[GlcNAc(b1-6)]Man(a1-6)]Man(b1-4)GlcNAc(b1-4)GlcNAc
Summary of the method: as §1

[32] = biological target: GlcNAc(b1-2)[GlcNAc(b1-4)]Man(a1-3)[GlcNAc(b1-4)][GlcNAc(b1-2)[GlcNAc(b1-6)]Man(a1-6)]Man(b1-4)GlcNAc(b1-4)[Fuc(a1-6)]GlcNAc
Summary of the method: as §1

[33] = biological target: GlcNAc(b1-2)[GlcNAc(b1-6)]Man(a1-6)[GlcNAc(b1-2)Man(a1-3)]Man(b1-4)GlcNAc(b1-4)GlcNAc
Summary of the method: as §1

[34] = biological target: GlcNAc(b1-2)[GlcNAc(b1-6)]Man(a1-6)[GlcNAc(b1-2)Man(a1-3)]Man(b1-4)GlcNAc(b1-4)[Fuc(a1-6)]GlcNAc
Summary of the method: as §1

[35] = biological target: GlcNAc(b1-2)[GlcNAc(b1-6)]Man(a1-6)[GlcNAc(b1-4)][GlcNAc(b1-2)Man(a1-3)]Man(b1-4)GlcNAc(b1-4)GlcNAc
Summary of the method: as §1

[36] = biological target: GlcNAc(b1-3)Fuc
Summary of the method: as §1

[37] = biological target: GlcNAc(b1-3)Gal
Summary of the method: as §1

[38] = biological target: GlcNAc(b1-3)Gal(b1-3)GalNAc
Summary of the method: as §1

B1: Si Bti9 1b-V5-his (Solanum lycopersicum) (protein)
chain: MQCNRGCDLALASFYVWRGSNLTLISEMFSTSIADIVSYNNRDNIPNQDSVIAGTRINIPFRCDCLNDGEVLGHAFPYRVKSGDTYDLVARNYSDLTTAQWMMKFNSYPENNIPNTVNLSVVVNCSCGNSDVSKDFGLFVTYPVRAEDNLTSVASAANVSEDIIRRYNPAAVSILDIGQGIIYIPGRDRNGNFPPLPTSTDGLSGGAKKGGRADPAFLYKVVINSKLEGKPIPNPLLGLDSTRTGHHHHHH
glycan array binding signal (z-score) [1]: 4.72
glycan array binding signal (z-score) [2]: -0.18
glycan array binding signal (z-score) [3]: -0.261
glycan array binding signal (z-score) [4]: -0.263
glycan array binding signal (z-score) [5]: -0.197
glycan array binding signal (z-score) [6]: -0.279
glycan array binding signal (z-score) [7]: -0.061
glycan array binding signal (z-score) [8]: -0.113
glycan array binding signal (z-score) [9]: 0.033
glycan array binding signal (z-score) [10]: -0.45
glycan array binding signal (z-score) [11]: -0.343
glycan array binding signal (z-score) [12]: -0.125
glycan array binding signal (z-score) [13]: -0.169
glycan array binding signal (z-score) [14]: -0.256
glycan array binding signal (z-score) [15]: -0.238
glycan array binding signal (z-score) [16]: -0.178
glycan array binding signal (z-score) [17]: -0.238
glycan array binding signal (z-score) [18]: -0.243
glycan array binding signal (z-score) [19]: -0.226
glycan array binding signal (z-score) [20]: -0.108
glycan array binding signal (z-score) [21]: -0.338
glycan array binding signal (z-score) [22]: 0.18
glycan array binding signal (z-score) [23]: -0.138
glycan array binding signal (z-score) [24]: -0.219
glycan array binding signal (z-score) [25]: 0.03
glycan array binding signal (z-score) [26]: 0.243
glycan array binding signal (z-score) [27]: -0.255
glycan array binding signal (z-score) [28]: -0.171
glycan array binding signal (z-score) [29]: -0.289
glycan array binding signal (z-score) [30]: -0.312
glycan array binding signal (z-score) [31]: -0.132
glycan array binding signal (z-score) [32]: -0.284
glycan array binding signal (z-score) [33]: -0.355
glycan array binding signal (z-score) [34]: -0.344
glycan array binding signal (z-score) [35]: -0.329
glycan array binding signal (z-score) [36]: -0.153
glycan array binding signal (z-score) [37]: -0.309
glycan array binding signal (z-score) [38]: -0.253

Reference: the supplement of paper PMC8728848
